Measured values from PubChem BioAssay AID504845 (National Center for Advancing Translational Sciences (NCATS), 2011).
Out of some 390,000 compounds screened, about 150 (0.038%) were called active. Inconclusive results, whose numbers are uncertain, are shown with a selection of clear calls. Calls come from the whole dose curve; as a rule, active = well fitted inhibition curve with a large enough effect; inconclusive = small, poorly fitted or top-dose-only effect; inactive = no such curve, though single readings can be large or run the other way. Potencies of inconclusive entries are doubtful fits and often do not repeat.

The molecules below were run against Regulator of G-protein signaling 4 (Homo sapiens) (UniProt P49798) (assay: Inhibitors of Regulator of G Protein Signaling (RGS) 4: qHTS). Conditions: Transcreener GDP fluorescence polarization, RGS4-accelerated GTP hydrolysis; series mostly up to 114 µM; activity change, negative = inhibition: at the top concentration.
In short: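 MLSMR compounds (23 nl, pin-transferred) preincubated 10 min at room temperature with a 500nM (2x) first reagent, then RGS4 at 900nM (2x) plus Transcreener GDP mix added; fluorescence polarization (620/688 nm) read before and after 90 min at 30 °C.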
% is set by controls: 0 for no effect and ±100 for the full control effect; potency is the fitted concentration of half-maximal effect; tags give direction and shape of the fitted curve.
Note: nearly all actives have a fitted effect of over 75% in size.

Chain of UniProt P49798 (P49798 whole entry, looked up): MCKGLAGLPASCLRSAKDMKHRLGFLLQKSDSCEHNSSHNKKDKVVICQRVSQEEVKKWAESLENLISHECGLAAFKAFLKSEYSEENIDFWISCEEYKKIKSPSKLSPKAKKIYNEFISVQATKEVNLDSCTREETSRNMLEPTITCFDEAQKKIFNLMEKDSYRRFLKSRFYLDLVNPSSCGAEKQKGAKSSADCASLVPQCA

Row | SMILES | Potency | activity change, negative = inhibition
1 | C/C(CCC1CC(C)(C)OC1=O)=N\NC(N)=S (stereo not drawn) | inconclusive: 89.1 µM [inhibitor, partial curve, poor fit] | –
2 | O=C(O)CC1S/C(=N/N=C/c2ccc(-c3ccc(Cl)cc3[N+](=O)[O-])o2)NC1=O (stereo not drawn) | inconclusive: 79.4 µM [inhibitor, partial curve, poor fit] | –
3 | Cc1ccc(SC2=C(N(C)C)C(=O)c3ccccc3C2=O)cc1 | inconclusive: 50.1 µM [inhibitor, partial curve, poor fit] | –
4 | O=C(Nc1ccccc1)c1ccc(S(=O)(=O)NCc2cccnc2)cc1 | – | inactive: -10.8%
5 | COc1ccc(CNc2nc(SCc3ccccc3Cl)nc3ccccc23)cc1 | inconclusive: 70.8 µM [inhibitor, partial curve, poor fit] | –
6 | COc1ccc(S(=O)(=O)N(C(C)=O)c2ccc3oc(=O)sc3c2)cc1 | inconclusive: 79.4 µM [inhibitor, partial curve, poor fit] | –
7 | CC(=O)c1ccc(-n2c(-c3cc(-c4ccco4)[nH]n3)n[nH]c2=S)cc1 | – | inactive: -44.1%
8 | O=C(COC(=O)c1ccc(S(=O)(=O)N2CCCC2)cc1)Nc1ccccc1 | inconclusive: 89.1 µM [inhibitor, partial curve, poor fit] | –
9 | Cn1c(SCC(=O)NC(c2ccccc2)c2ccccc2)nnc1-c1cccs1 | inconclusive: 50.1 µM [inhibitor, partial curve, poor fit] | –
10 | CC(C)CCn1c(=O)c2ccccc2n2c(CN3CCOCC3)nnc12 | – | inactive: -1.55%
11 | CC(NC1CCCCC1)C(=O)NN=C(c1ccccc1)c1ccccc1 (stereo not drawn) | – | inactive: -16%
12 | CCCC(C)c1nnc(NC(=O)c2cc(C(=O)OC)cc([N+](=O)[O-])c2)s1 (stereo not drawn) | inconclusive: 79.4 µM [inhibitor, partial curve, poor fit] | –
13 | Cc1cc(NC(=O)COn2nnc3ccccc32)no1 | inconclusive: 89.1 µM [inhibitor, single point] | –
14 | Cc1cccc(C)c1NC(=O)C(NC(=O)c1ccccn1)c1ccc([N+](=O)[O-])cc1 (stereo not drawn) | inconclusive: 56.2 µM [inhibitor, partial curve, poor fit] | –
15 | Cc1ccc(NC(=O)Nc2c(C)n(C)n(-c3ccccc3)c2=O)cc1C | inconclusive: 28.2 µM [inhibitor, full curve, poor fit] | –
16 | Fc1ccc(CNC(=S)NCc2ccccc2)cc1 | – | inactive: -16.8%
17 | COc1cc(CO)cc(-c2cc(CO)cc(OC)c2OC)c1OC | – | inactive: -5.96%
18 | Cc1oc(=O)c(NC(=O)c2ccccc2)cc1C(N)=O | – | inactive: -15.3%
19 | CCN1/C(=C/C=C/c2oc3ccc4ccccc4c3[n+]2CC)Oc2ccc3ccccc3c21 | inconclusive: 28.2 µM [inhibitor, full curve, poor fit] | –
20 | COC(=O)c1ccc(Nc2c([N+](=O)[O-])c(=O)oc3ccccc23)cc1 | inconclusive: 79.4 µM [inhibitor, single point] | –
21 | CC(C)N1C(=O)S/C(=C/c2ccccc2OCc2ccc(C(=O)O)cc2)C1=O | – | inactive: -46.9%
22 | Cc1ccc(C)c(OCc2nc3ccccc3[nH]2)c1 | – | inactive: -17.1%

Row | SMILES | Potency | activity change, negative = inhibition
23 | CCOc1ccc(CN2C(=O)c3ccccc3C2C(=O)NCCc2ccc(OC)c(OC)c2)cc1 (stereo not drawn) | – | inactive: 8.38%
24 | COc1cccc(CN2CC(C(=O)NCCc3ccc(C)o3)CCC2=O)c1 (stereo not drawn) | inconclusive: 44.7 µM [inhibitor, partial curve, poor fit] | –
25 | CC1CCN(C(=O)CSc2nc3ccccc3nc2Cc2ccccc2)CC1 | – | inactive: 4.96%
26 | CC(C)C(=O)Nc1ccc2nc(SCC(=O)N3CCc4ccccc43)sc2c1 | – | inactive: 2.1%
27 | NC(=O)c1c(NC(=O)Cn2nc(C(=O)O)c3ccccc3c2=O)sc2c1CCCC2 | inconclusive: 79.4 µM [inhibitor, partial curve, poor fit] | –
28 | COc1ccc(/C=N/N(Cc2ccccc2)c2ccccc2)cc1O | inconclusive: 39.8 µM [inhibitor, partial curve, poor fit] | –
29 | CCCCC[C@@H](/C=C/C1C(=O)C=C[C@H]1C/C=C\CCCC(=O)OC)OC(C)=O (stereo partly drawn) | inconclusive: 39.8 µM [inhibitor, partial curve, poor fit] | –
30 | O=C(CSc1ncnc2scc(-c3ccccc3)c12)N1CCN(Cc2ccc3c(c2)OCO3)CC1 | inconclusive: 79.4 µM [inhibitor, partial curve, poor fit] | –
31 | CCc1ccc2c(CN3CCc4cc(OC)c(OC)cc4C3)cc(=O)oc2c1 | – | inactive: -12.6%
32 | C/C(=N\Nc1nc(N2CCOCC2)nc(N2CCOCC2)n1)c1ccc([N+](=O)[O-])cc1 | inconclusive: 44.7 µM [inhibitor, partial curve, poor fit] | –
33 | Nc1nc(Nc2ccccc2)nc(NCc2ccco2)c1[N+](=O)[O-] | – | inactive: 14.7%
34 | CCCN1C(=O)/C(=C/c2ccc(C)o2)SC1=Nc1ccc(OC)cc1 | inconclusive: 31.6 µM [inhibitor, partial curve, poor fit] | –
35 | CCN(CC)c1ccc(/C=N/NC(=O)c2cccc(S(=O)(=O)N3CCOCC3)c2)c(O)c1 | – | inactive: -20.6%
36 | C=CCn1c(SC2CCOC2=O)nc2sc(CC)cc2c1=O (stereo not drawn) | inconclusive: 89.1 µM [inhibitor, single point] | –
37 | S=C(NCc1ccco1)Nc1ccc(Cl)cc1 | – | inactive: -22%
38 | Nc1c(S(=O)(=O)c2ccccc2)c2nc3ccccc3nc2n1/N=C/c1ccco1 | inconclusive: 17.8 µM [inhibitor, full curve, poor fit] | –
39 | Cc1ccc(/C=N/N2CCN(c3ccc(Cl)cc3)CC2)o1 | inconclusive: 79.4 µM [inhibitor, partial curve, poor fit] | –
40 | CCNC(=O)[C@H]1O[C@@H](n2cnc3c(N)nc(NCCc4ccc(CCC(=O)O)cc4)nc32)[C@H](O)[C@@H]1O | inconclusive: 1.06 µM [inhibitor, full curve, poor fit] | –
41 | O=C(N/N=C/C=C/c1ccco1)c1ccccc1Cl | inconclusive: 79.4 µM [inhibitor, single point] | –
42 | OC1(c2ccc(Cl)cc2)CCN(Cc2cn[nH]c2-c2ccc(F)cc2)CC1 | – | inactive: -4.4%
43 | COc1ccccc1CNC(=O)c1c(N)n(CCCN2CCOCC2)c2nc3ccccc3nc12 | – | inactive: 7.58%
